In publication PMC5370187:
These are yes or no findings as the source states them, for the method shown. Binding seen in cells or lysates may run through a third protein. Some binding calls cover weakened binding; strength is not graded here.

Protein sequences, listed by entry. Tags and fused reporters are not part of them.
UniProt B0B9A0: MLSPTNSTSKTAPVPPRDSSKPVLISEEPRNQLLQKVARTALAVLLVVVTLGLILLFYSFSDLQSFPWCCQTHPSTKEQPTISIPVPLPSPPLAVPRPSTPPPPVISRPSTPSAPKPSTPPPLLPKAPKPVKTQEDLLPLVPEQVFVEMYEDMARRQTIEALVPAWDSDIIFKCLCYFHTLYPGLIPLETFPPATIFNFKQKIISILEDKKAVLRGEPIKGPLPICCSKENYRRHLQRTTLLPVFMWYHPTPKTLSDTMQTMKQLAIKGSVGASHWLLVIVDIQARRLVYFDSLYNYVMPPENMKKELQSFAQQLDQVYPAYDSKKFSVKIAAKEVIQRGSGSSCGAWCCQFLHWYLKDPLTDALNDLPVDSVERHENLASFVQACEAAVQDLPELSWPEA
UniProt B0B999: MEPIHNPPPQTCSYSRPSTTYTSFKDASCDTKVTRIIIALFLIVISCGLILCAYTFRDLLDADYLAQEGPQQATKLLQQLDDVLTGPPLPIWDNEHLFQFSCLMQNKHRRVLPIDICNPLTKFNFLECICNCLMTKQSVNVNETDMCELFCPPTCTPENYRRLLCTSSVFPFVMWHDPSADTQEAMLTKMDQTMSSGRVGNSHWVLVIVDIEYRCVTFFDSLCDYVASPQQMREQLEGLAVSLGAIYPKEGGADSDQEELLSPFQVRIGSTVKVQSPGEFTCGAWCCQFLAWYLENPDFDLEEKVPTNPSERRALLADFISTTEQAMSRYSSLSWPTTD
UniProt Q07820: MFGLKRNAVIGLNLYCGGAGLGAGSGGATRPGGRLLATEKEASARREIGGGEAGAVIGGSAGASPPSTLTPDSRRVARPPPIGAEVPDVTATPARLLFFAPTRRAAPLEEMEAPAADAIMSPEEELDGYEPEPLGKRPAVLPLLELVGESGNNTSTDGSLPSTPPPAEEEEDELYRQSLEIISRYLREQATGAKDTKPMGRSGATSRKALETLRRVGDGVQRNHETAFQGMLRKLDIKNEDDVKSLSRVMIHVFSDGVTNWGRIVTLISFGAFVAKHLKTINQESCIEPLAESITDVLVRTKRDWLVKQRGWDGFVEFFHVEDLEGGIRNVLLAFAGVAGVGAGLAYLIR

What was measured:
Test in all cases: co-IP
[1] = target: Cdu1-FLAG (chlamydial deubiquitinating enzyme 1, FLAG-tagged, expressed from the cdu1 locus of strain Ctr Cdu1-FLAG) (C. trachomatis) (UniProt B0B9A0)
[2] = target: Cdu1-FLAG expressed in non-infected HEK-293T cells (C. trachomatis) (UniProt B0B9A0)
[3] = target: Cdu1-FLAG overexpressed by strain Ctr pTet/Cdu1-FLAG (C. trachomatis) (UniProt B0B9A0)
[4] = target: Cdu2-FLAG overexpressed by strain Ctr pTet/Cdu2-FLAG (C. trachomatis) (UniProt B0B999)

Substance | binding [1] | binding [2] | binding [3] | binding [4]
endogenous p53 of HeLa cells (from UniProt P04637 1-393) | no binding | – | – | –
endogenous Mcl-1 of HEK-293T cells (from UniProt Q07820 1-350) | – | binds | – | –
endogenous Mcl-1 of HeLa cells (from UniProt Q07820 1-350) | binds | – | binds | no binding
